Data: PubChem BioAssay AID1794842 (National Center for Advancing Translational Sciences (NCATS), 2023)
The whole screen tested about 2,800 compounds, of which fewer than 10 were called active. Calls come from the whole dose curve; as a rule, active = well fitted curve in the direction sought with a large enough effect; inconclusive = small, poorly fitted or top-dose-only effect, or another doubt; inactive = no such curve, though single readings can be large or run the other way. The list shows a part of the results.
Note: % of control where 0% means no effect.

These compounds were tested against Metallo-beta-lactamase type 2 (Klebsiella pneumoniae) (UniProt C7C422) (assay: qHTS to identify inhibitors of the New Delhi Metallo-beta-lactamase (NDM): Meropenem screen against the machine-based learning selections.). Conditions: Purified NDM-1, meropenem hydrolysis, absorbance 300 nm; at 57.5 µM (top of the series) unless noted.
UniProt C7C422, sequence (C7C422 whole entry, looked up): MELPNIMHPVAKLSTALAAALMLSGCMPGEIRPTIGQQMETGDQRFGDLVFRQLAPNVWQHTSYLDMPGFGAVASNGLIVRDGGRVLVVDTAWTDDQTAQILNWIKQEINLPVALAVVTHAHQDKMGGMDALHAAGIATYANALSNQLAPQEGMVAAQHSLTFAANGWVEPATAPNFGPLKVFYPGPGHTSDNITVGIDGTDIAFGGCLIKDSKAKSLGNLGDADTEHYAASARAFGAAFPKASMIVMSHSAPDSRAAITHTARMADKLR
Procedure, shortened: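 Hydrolysis by 2 nM NDM-1 was followed by absorbance after >30 min compound preincubation in HEPES pH 7.0 buffer with 1 uM Zn2SO4. For nitrocefin (16.7 uM, 15 min, 485 nm) and meropenem (50 uM, 30 min, 300 nm), each substrate ran on separate plates.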
With `COc1ccc(C(=O)N2C[C@@H]3C[C@H](C2)c2c(NC(=O)c4ccco4)ccc(=O)n2C3)cc1` the activity change, negative = inhibition was inactive: 2.15%. For `CC(=O)Nc1ccc(-c2ccc(=O)n3c2[C@@H]2C[C@@H](CN(C(=O)C4CCCCC4)C2)C3)cc1`, the activity change, negative = inhibition was inactive: -0.744%. For `CC(=O)Nc1ccc(S(=O)(=O)NC[C@H]2C[C@@H]3CCN2C[C@@H]3c2cc(-c3ccccc3Br)nc(C)n2)cc1`, the activity change, negative = inhibition was inactive: 0.512% [at 38.4 µM]. `N#Cc1ccc(C(=O)N2C[C@@H]3C[C@H](C2)c2c(-c4ccccc4F)ccc(=O)n2C3)cc1` was tested, and the activity change, negative = inhibition was inactive: -1.77%. In the case of `COc1ccc(CN2C[C@@H]3C[C@H]2C(=O)Nc2ccccc2O3)cn1`, the activity change, negative = inhibition is reported as inactive: -1.05%. In the case of `O=C1N(Cc2cccnc2)C[C@H]2CN(C3CCC3)CCN12`, the activity change, negative = inhibition is reported as inactive: 0.55% [at 76.7 µM]. With `Cn1cc(C(=O)N2CC[C@@](C)(O)[C@@H](O)C2)c2ccccc21` the activity change, negative = inhibition was inactive: 6.14% [at 38.4 µM]. For `C=C[C@H]1CN2CC[C@H]1C[C@@H]2CNC(=O)Nc1ccc(Oc2ccccc2)cc1`, the activity change, negative = inhibition was inactive: 2.19%. With `COc1ccccc1-n1cc(C2=CCN(CCOCCO)CC2)cn1` the activity change, negative = inhibition was inactive: 2.23% [at 38.4 µM]. `Cc1nc(-c2ccc(N(C)C)cc2)cc([C@H]2CN3CC[C@H]2C[C@@H]3COC(=O)NC(C)C)n1` was tested, and the activity change, negative = inhibition was inactive: 3.31% [at 38.4 µM]. `CC(C)(C)NC(=O)N1[C@H]2CC[C@@H]1c1cnc(-c3ccccc3)nc1C2` was tested, and the activity change, negative = inhibition was inactive: 5.5% [at 38.4 µM]. In the case of `COc1cc2c(cc1OCc1ccncc1)NC(=O)C21CCN(Cc2cccc(O)c2)CC1`, the activity change, negative = inhibition is reported as inactive: -0.41% [at 38.4 µM]. In the case of `NC(=O)c1ccc(-c2cccc3c2CCNC3)s1`, the activity change, negative = inhibition is reported as inactive: 0.564% [at 38.4 µM]. With `CC(C)NC(=O)OC[C@H]1C[C@@H]2CCN1C[C@@H]2c1cc(C2CCCC2)nc(-c2ccncc2)n1` the activity change, negative = inhibition was inactive: 8.98% [at 38.4 µM]. `CC(C)NC(=O)NC[C@H]1C[C@@H]2CCN1C[C@@H]2c1cc(C2CCCC2)nn1C` was tested, and the activity change, negative = inhibition was inactive: 1.42%. In the case of `CCC(CC)c1cc([C@H]2CN3CC[C@H]2C[C@@H]3CNC(=O)c2ccc(C)cc2)nc(-c2ccncc2)n1`, the activity change, negative = inhibition is reported as inactive: 0.451% [at 38.4 µM]. In the case of `COCC1(CNC2CCN(C)CC2)C[C@@H](O)[C@@H](O)C1` (stereo partly drawn), the activity change, negative = inhibition is reported as inactive: 7.59% [at 76.7 µM]. In the case of `COCC(=O)NC[C@H]1C[C@@H]2CCN1C[C@@H]2CN1CCC(C)CC1`, the activity change, negative = inhibition is reported as inactive: 0.281%. With `Cc1ccc(C(=O)NC[C@H]2C[C@@H]3CCN2C[C@@H]3c2cc(-c3ccccc3)nn2C)cc1` the activity change, negative = inhibition was inactive: -0.929%. `CCCS(=O)(=O)NC[C@H]1C[C@@H]2CCN1C[C@@H]2c1cc(-c2ccccc2Br)nc(C)n1` was tested, and the activity change, negative = inhibition was inactive: 2.22% [at 38.4 µM]. For `CN(C)CC(=O)Nc1ccc2n(c1=O)C[C@H]1C[C@@H]2CN(C(=O)c2ccc(F)cc2)C1`, the activity change, negative = inhibition was inactive: 46.5%. With `COCCNC(=O)[C@H]1CN2CCC1C[C@@H]2Cn1cc(-c2cccc(N)c2)nn1` (stereo partly drawn) the activity change, negative = inhibition was inactive: 0.788%. With `Cc1ccc2c(n1)N(C)[C@H](CO)CCN(CC(C)C)C2` the activity change, negative = inhibition was inactive: 3.32% [at 76.7 µM]. `CN(C)Cc1cn(C[C@H]2C[C@@H]3CCN2C[C@@H]3C(=O)Nc2ccccc2)nn1` was tested, and the activity change, negative = inhibition was inactive: -1.5%. In the case of `CSc1ccc(-c2ccc(=O)n3c2[C@@H]2C[C@@H](CN(S(C)(=O)=O)C2)C3)cc1`, the activity change, negative = inhibition is reported as inactive: 25.3%. In the case of `O=C(NC1CC1)[C@H]1CN2CCC1C[C@@H]2Cn1cc(CSc2ccccc2)nn1` (stereo partly drawn), the activity change, negative = inhibition is reported as inactive: 4.37%. `CN(C)c1ccc(C(=O)NC[C@H]2C[C@@H]3CCN2C[C@@H]3CN2CCCCC2)cc1` was tested, and the activity change, negative = inhibition was inactive: 2.4%. In the case of `CCC(CC)c1cc([C@H]2CN3CC[C@H]2C[C@@H]3CNC(=O)c2ccc(N(C)C)cc2)nc(-c2ccncc2)n1`, the activity change, negative = inhibition is reported as inactive: 6.26% [at 38.4 µM]. In the case of `COCCC(=O)N1[C@H]2CC[C@@H]1c1cnc(-c3ccccc3)nc1C2`, the activity change, negative = inhibition is reported as inactive: -0.338% [at 38.4 µM]. In the case of `Cc1ccccc1-c1ccc2n(c1=O)C[C@H]1C[C@@H]2CN(C(=O)NC2CCCCC2)C1`, the activity change, negative = inhibition is reported as inactive: -3.66%. For `CCCCc1cn(C[C@H]2CC3CCN2C[C@@H]3C(=O)NCc2ccccc2)nn1` (stereo partly drawn), the activity change, negative = inhibition was inactive: 0.377%. For `CCN(CC)C[C@H]1CN2CC[C@H]1C[C@@H]2CNC(=O)Nc1ccccc1`, the activity change, negative = inhibition was inactive: -4.49%. For `O=C(c1cncnc1)N1C[C@@H]2C[C@H](C1)c1c(-c3ccc4ccccc4c3)ccc(=O)n1C2`, the activity change, negative = inhibition was inactive: -1.1%. With `Cn1nc(-c2cccs2)cc1[C@H]1CN2CC[C@H]1C[C@@H]2CNCc1ccccn1` the activity change, negative = inhibition was inactive: 91.4%. In the case of `CC(=O)c1ccc(NC(=O)NC[C@H]2C[C@@H]3CCN2C[C@@H]3c2cc(-c3ccco3)nc(C)n2)cc1`, the activity change, negative = inhibition is reported as inactive: 8.05% [at 38.4 µM]. With `CC(C)NC(=O)[C@H]1CN2CCC1C[C@@H]2Cn1cc(CN(C)Cc2ccccc2)nn1` (stereo partly drawn) the activity change, negative = inhibition was inactive: 0.305%. In the case of `CC[C@H]1CN2CC[C@H]1C[C@@H]2CNS(=O)(=O)c1ccc2ccccc2c1`, the activity change, negative = inhibition is reported as inactive: -3.14%. With `Cc1cc(NCCc2c[nH]c(=O)[nH]c2=O)n2nccc2n1` the activity change, negative = inhibition was inactive: 33.3% [at 38.4 µM]. With `CNc1ncc(C(=O)N2C[C@H]3COc4ccccc4C[C@@]3(C(=O)O)C2)cn1` the activity change, negative = inhibition was inactive: 0.324% [at 38.4 µM]. With `COc1ccc(-c2cc([C@H]3CN4CC[C@H]3C[C@@H]4CNC(=O)C3CCC3)n(C)n2)cc1OC` the activity change, negative = inhibition was inactive: 4.37%. With `CCOc1ccc(CC(=O)N2CCC3(CC2)c2nccn2-c2ccccc2CN3C)cc1` the activity change, negative = inhibition was inactive: -1.87% [at 38.4 µM]. With `CCC(CC)c1cc([C@H]2CN3CC[C@H]2C[C@@H]3CNC(=O)C2CC2)nc(-c2ccncc2)n1` the activity change, negative = inhibition was inactive: -3.47%. `CC[C@H]1CN2CC[C@H]1C[C@@H]2COC(=O)Nc1ccc(C(C)(C)C)cc1` was tested, and the activity change, negative = inhibition was inactive: 12.4%.
